# The list shows a part of the results. One pool of 16,384 single-stranded DNAs met each Rep nickase domain in vitro (3 µM enzyme, 1 h, 37 °C); shown is the middle of each 90-letter strand. Numbers give uncut DNA relative to the enzyme-free pool, as log2; the lower, the more was cut; hits are not called. The scaling is to total reads; uncut strands gain when others are lost, and binding without cutting may add a little.
# Tested on: T1, Rep nickase domain of tomato golden mosaic virus
# T1 sequence (residues 1-124, tag not shown): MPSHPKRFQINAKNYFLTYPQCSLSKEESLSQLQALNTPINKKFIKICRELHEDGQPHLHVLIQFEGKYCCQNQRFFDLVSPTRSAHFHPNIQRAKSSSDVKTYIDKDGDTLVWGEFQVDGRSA
# Experiment: uncleaved DNA left, log2 of reads against the no-enzyme library (log2 ratio); higher = less cleavage (more negative = more Rep cleavage of the k-mer); sequences stand for … in CTCGTCCG…ACCGGAGA
# Procedure: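 A pool of 90-nt single-stranded DNAs with seven random bases just before the constant AC of the nick site (name = the seven bases) was cut by 3 µM recombinant His6-SUMO-tagged Rep nickase domain (300 nM DNA, 50 mM HEPES pH 8.0, 50 mM NaCl, 1 mM MnCl2, 1 h, 37 °C, three replicates). Uncut DNA was amplified and sequenced.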
row,Sequence,uncleaved DNA left (log2)
1,AGCTCCT,-0.0591
2,CTAGAGC,-0.0436
3,ATAGCTG,0.065
4,GATTCCT,-0.209
5,GTGAGTC,0.0663
6,GGCTAAT,0.0977
7,ATTTTGC,-0.0337
8,GAACTTA,-0.12
9,GGACGTC,0.042
10,CTTAGTT,0.00483
11,CGTGTCA,-0.0192
12,ATTTTCA,-0.0624
13,AGCGTTT,0.0605
14,TCGCAGC,-0.0459
15,CGGAATG,0.076
16,AAGGAGC,0.0809
17,CTACCCT,-0.131
18,CCAATAG,0.147
19,TTTTGCT,-0.0851
20,GTCGAGG,0.383

row,Sequence,uncleaved DNA left (log2)
1,CGGATCG,0.0464
2,CAATCTG,-0.00259
3,CGGTGCT,-0.00799
4,CCGCGTT,-0.115
5,GCCCGCT,-0.063
6,CATGAGT,-0.00436
7,TCGCATG,-0.135
8,CTTTGAG,0.0287
9,GCACAAA,-0.0162
10,TGAGAGA,0.111
11,CCCCCAT,0.0487
12,TCGATCA,0.0549
13,CGCGGCG,-0.0857
14,GGTGTGT,-0.143
15,CAAGTAG,-0.0141
16,ATCCCGA,-0.0165
17,ACCTAAT,0.287
18,CCTCGCG,0.00594
19,CAGCGAT,0.177
20,GATTAAT,-0.0453
